Laboratory results taken from ChEMBL document CHEMBL4888484, “Replenishing the malaria drug discovery pipeline: Screening and hit evaluation of the MMV Hit Generation Library 1 (HGL1) against asexual blood stage Plasmodium falciparum ,using a nano luciferase reporter read-out” (2022).
Hit rate of the full screen: of about 150,000 compounds, about 540 (0.36%) showed an effect of 50% or more. The list shows a part of the results.

Test system: Plasmodium falciparum
Assay: Primary screen in NF54 nanoGlo assay, in single point, at 2uM, 72h; a lower Z score goes with more inhibition
Type: functional, Erythrocyte
Settings: timepoint 72 hour

SMILES	% Inhibition [%]	Z score
CCCOCc1nc([C@H]2CCO[C@@H]2C(C)(C)C)no1	-1	0.15
O=C(O)CN1C(=O)COc2ccc(S(=O)(=O)Nc3cccc(-c4nc5ccccc5s4)c3)cc21	-12	2.22
O=C(O)C[C@H](NC(=O)C1CCc2ncncc2C1)c1ccc2ccccc2c1 (stereo partly specified)	27	-3
O=C(c1ccc(N2CCCC2)nc1)N1CC(S(=O)(=O)N2CCOCC2)C1	-21	1.9
CCN(CC(=O)NCc1cccs1)C(=O)C[C@H](NC(C)=O)c1ccccc1	-12	1.69
OC1CCCN(Cc2ccc3cn[nH]c3c2)C1CCc1ccccc1 (stereo unspecified)	-12	1.96
CN1CCN(C2(CNc3ccnc4ccccc34)CCCC2)CC1	99	-9.07
CCc1ccc([C@@H]2C[C@H](c3cccc(Cl)c3)n3nc(N)nc3N2)cc1	-17	2.14
OCC1(Nc2nc(C3CC3)ns2)CCCC1	-9	1.37
Cc1ccnc(NCCNC(=O)CCn2c(C)cc(C)nc2=O)c1	-13	1.97
COc1ccc2c(c1)C[C@H](C(C)C)CN2C(=O)c1cnc(C(=O)O)cn1	-6	0.75
Cc1nc(-c2ccc(NCc3cc4ccccc4o3)nc2)[nH]c(=O)c1C	30	-4.36
Cc1nnc(NC(=O)CCCCc2nc3ccccc3s2)s1	-6	0.72
COc1ccccc1-c1n[nH]c(C2CC2)c1NC(=O)CC(C)C	-14	1.4
COCC1(C(=O)N(C)Cc2nncn2C)CCC1	-19	2.41
CC(C)c1nn(C)cc1NS(=O)(=O)CCCC(F)(F)F	33	-4.51
COc1cc2c(cc1OC)C(=O)N1C[C@H](N(C)C)C[C@H]1C(=O)N2	-9	1.07
CCNC(=O)Nc1cc(S(=O)(=O)N(CC)CC)ccc1Cl	5	-0.97
O=C1C(N2CC(O)C(O)C2)CCCN1CC(F)(F)F (stereo unspecified)	-10	1.45
COc1ccccc1NC(=O)c1ccc2c(N(C)C)ncnc2c1	3	-0.38
CCc1cc(N2CC[C@](COC)(C(=O)O)C2)nc(C)n1	-8	0.98

SMILES	% Inhibition [%]	Z score
O=C(NCc1ccc(F)cc1)c1nc(O)c2nnn(C[C@H]3CCCO3)c2n1	-4	0.48
O=C(CC1CCCC1)NCc1ccccc1Cl	-11	1.84
Cn1c(-c2ccc(-n3ccnc3)nn2)cc2ccccc21	3	-0.27
C[C@H]1CS(=O)(=O)CCN1Cc1cnc(C(F)(F)F)s1	-5	0.8
CC(C)(C)c1oc(C(N)=O)cc1CN1C(=O)CC2(CCCC2)CC1=O	-5	0.94
CC(C)(C)c1ccc(C(=O)c2c[nH]c(C(=O)NCc3ccco3)c2)cc1	29	-3.69
CC(C)CC[C@](C)(O)CNC(=O)C1CC=CC1	-6	1.16
Cn1ccc(=O)n(CC(=O)c2ccc(N3CCCC3=O)cc2)c1=O	1	-0.09
CC1(C)[C@H]2CC=C(CCNC(=O)CCO)[C@@H]1C2	-11	1.69
Nc1nonc1C(=O)N1CCN(C(=O)c2ccccc2Cl)CC1	-16	3.17
CCC=C(C)C(=O)NCc1ccc(OC)c(OC)c1	11	-1.46
Cc1ccc(CCNC(=O)c2sc3ncnc(N4CCCC4)c3c2C)cc1	-13	1.18
Cc1ccc(NC(=O)CNC(=O)c2ccc(-c3noc(C4CCCC4)n3)cc2)c(Cl)c1	-6	1.11
CC(C)[C@@]1(CO)CCCN(Cc2cnn(C)c2C(F)(F)F)C1	-11	1.5
CCC[C@H]1CCc2c(sc(NC(=O)c3c(C)noc3C)c2C#N)C1	9	-1.03
CCOC(=O)c1cc(OCc2nnc(-c3ccccc3)o2)cc(C(=O)OCC)c1	-17	2.37
CN1CCN(C[C@@H](O)CN(C)C(=O)CC2CCCCCC2)CC1	1	-0.15
CC[C@H]1CCCCN1C(=O)Cn1c(=O)c2c(C(=O)OC)cc(C)nc2n(-c2cccc(OC)c2)c1=O	-10	1.23
COc1cccc(Cn2c(=O)c3sccc3n(CC(=O)NC(C)(C)C)c2=O)c1	34	-3.83
CCCC(=O)Nc1cccc(C2OC(=O)N(Cc3cccc(Cl)c3)C2C(=O)NCc2ccco2)c1 (stereo unspecified)	-7	0.72
O=C(OCc1nnc(-c2ccccc2)o1)c1cc(Cl)c[nH]1	-8	0.95

SMILES	% Inhibition [%]	Z score
CCCn1c(-n2nc(C)nc2-c2cn(C)c(=O)[nH]c2=O)nc2ccccc21	9	-1.13
C[C@@H](CS(C)(=O)=O)NC(=O)c1cncc(Br)c1	-9	1.05
O=C(NCc1cccs1)[C@H]1CCCN(c2nnc3ccccn23)C1	-10	1.14
C=CC(C)(CC)C(=O)N1CCN(C(C)C(=O)N2CCCCC2)CC1 (stereo unspecified)	-19	1.98
Nc1cc(Br)ccc1CO	26	-2.93
Cc1cc(CN2CCCC2)cc(C)c1Oc1cncc(CN(C)C)n1	-7	0.67
CC1C(C(F)(F)F)CCN1C(=O)Cn1c(=O)cnc2ccccc21 (stereo unspecified)	-18	2.07
Cc1cnc(CCNC(=O)C2CCCC2)n1C1CCC1	-4	0.8
CC(=O)N(c1nc(CN2CCCC2C2CCCN2Cc2ccccc2)cs1)C1CC1 (stereo unspecified)	-3	0.42
Cc1nc2ccc(N(C)C(=O)CC(=O)NCC(F)(F)F)cc2s1	-9	0.9
COc1cc(C)c(S(=O)(=O)N2CCN(S(=O)(=O)c3cc(C)c(OC)cc3C)[C@@H](C)C2)cc1C	26	-2.92
Cc1noc(C)c1CN(C)Cc1ccc(-c2ccccc2C#N)o1	2	-0.27
Cc1ccc(NC(=O)c2cccc3c(=O)c4c([nH]c23)CCC4)cc1Cl	-11	2.08
O=C(NCc1nc(CN2CCO[C@H](C(F)F)C2)cs1)c1ccccc1	0	0.07
CN(C)S(=O)(=O)N1C[C@H]2CC[C@@H](C1)N(C(=O)c1n[nH]c3ccccc13)C2	-15	2.54
CN1CC[C@@H](c2nc(-c3cccc(OCC(F)F)n3)no2)S1(=O)=O	-5	0.9
Cc1nc2ccc(C(=O)N3CCOc4ccc(CN5CCOCC5)cc4C3)cc2nc1C	-6	0.95
CC(C)c1cc(-c2nc(N(C)C)no2)n[nH]1	-6	1.03
CC(=O)N1CCc2[nH]cnc2C12CCN(C(=O)c1ccc(O)cc1)CC2	-2	0.26
CN(C)c1ccc(COCc2ccc(C#N)cc2)cc1	0	-0.06
CCN(CCN(C)C)C(=O)c1cc(C)nc(C)n1	-13	1.16

SMILES	% Inhibition [%]	Z score
Cc1ccsc1-c1ccc(C(=O)N[C@H]2CC[C@@H](N)C2)cc1	-5	0.75
Cc1nocc1S(=O)(=O)N[C@H]1CC(=O)N(C)[C@@H]1c1cccnc1	-12	2.33
Cc1nnc(NC(=O)CC[C@@H](C)[C@H]2CC[C@H]3[C@@H]4CC[C@@H]5C[C@H](O)CC[C@]5(C)[C@H]4C[C@H](O)[C@]23C)s1	-13	1.68
COc1cc2c(cc1OC)CN(C(=O)C1CCOCC1)CC2	-17	1.4
CS(=O)(=O)N1CCC(C(=O)N[C@@H](CN2C(=O)COC2=O)c2ccccc2)CC1	18	-2.87
CCOC(=O)C(=O)N1CCN(c2nc3nccc(-c4cc(Cl)ccc4Cl)n3n2)CC1	-16	2.16
Cc1ccsc1CN(C)C(=O)c1cn(Cc2cccc3ccccc23)nn1	-10	1.56
COc1ccc(CCC(=O)N2C3CCC2CC(OC)C3)cc1 (stereo unspecified)	-18	2.26
COCCCn1cnc2c(-c3ccccc3)c[nH]c2c1=O	-5	0.89
O=C(CC1CCCCC1)Nc1ncc(C2CCNCC2)s1	9	-1.77
Cn1cnn(CCOc2ccc(F)cc2Cl)c1=O	-1	0.12
Fc1ccc2oc(N3CCOC[C@H]3c3nc(-c4cccs4)no3)nc2c1	0	-0.05
COc1ccc(CCn2c(-c3c(OC)ccc4ccccc34)nc3ccc(Cl)cc3c2=O)cc1	0	-0.01
Cc1ccc2nc(N3CCC(C)CC3)cc(=O)n2c1	-8	1.11
COc1ccc2cc1Oc1ccc(cc1)CC1c3cc(OC)c(O)c(c3CCN1C)Oc1cc3c(cc1OC)CCN(C)C3C2 (stereo unspecified)	-4	0.85
O=C1C[C@@H](C(=O)Nc2ccccc2)N=C(N2CCOCC2)N1	-6	0.83
C[C@H](Oc1ccccc1)C(=O)N1CCC(c2nc(-c3ccc4c(c3)OCO4)no2)CC1	29	-0.72
CC(=O)Nc1c(C)nn(-c2ccccc2)c1N1CCC(C(=O)N2CCC(N3CCCCC3)CC2)CC1	-11	2
COc1cccc(Cl)c1CC(=O)N(C)C[C@H](C)c1nnn[nH]1	8	-1.36
Cc1csc(CCNC(=O)N2CCOC(C)(C)C2)n1	-6	0.6
